# Measured values reported in a collection of fitness landscapes (doi:10.1016/j.celrep.2020.107928).
# The full ranking holds about 81,000 sequences; the median of “one-hybrid fitness for binding parS DNA” is about -0.17, and the highest 2% start at about 0.51. This is one part of the list.
# B1: Caulobacter ParB omega fusion; a variant is named by its letters at X, in order, B8GW30 (parent)
# chain: MESVVVGEPGMSEGRRGLGRGLSALLGEVDAAPAQAPGEQLGGSREAPIEILQRNPDQPRRTFREEDLEDLSNSIREKGVLQPILVRPSPDTAGEYQIVAGERAWRAAQRAGLKTVPIMVRELDDLAVLEIGIIENVQRADLNVLEEALSYKVLMEKFERTQENIAQTIGKSXSHVANXMRLLXLPDEVQSYLVSGELTAXHARAIAAAADPVALAKQIIEGGLSVRETEALARKAPNLSAGKSKGGRPPRVKDTDTQALESDLSSVLGLDVSIDHRGSTGTLTITYATLEQLDDLCNRLTRGI
# Variants of: B1
# Experiment: one-hybrid fitness for binding parS DNA (scaled: cognate 1, non-cognate 0); higher = stronger binding
# Details: with parS DNA site
# In short: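 Bacterial one-hybrid selection in E. coli USO rpoZ- hisB- pyrF- with a HIS3 reporter carrying the site 19 bp from the promoter, screening Caulobacter ParB libraries with four specificity codons randomised (NNS). Cells grew 48 hours at 37°C on M9-minus-histidine plus 0.1 mM IPTG and 5 mM 3-AT. Plasmids before and after selection were Illumina-sequenced, three replicate libraries pooled, and variants under 10 reads dropped. Fitness is the log change in variant-to-wild-type read ratio, rescaled to cognate 1, non-cognate 0.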
row,Variant,one-hybrid fitness for binding parS DNA
1,AYVI,≤ 0.2
2,HTPL,≤ 0.2
3,MVAQ,≤ 0.2
4,PIEF,≤ 0.2
5,VIGF,≤ 0.2
6,VGPP,≤ 0.2
7,TNHW,≤ 0.2
8,RLWW,0.245
9,QYSQ,≤ 0.2
10,VLAN,≤ 0.2
11,TLAD,≤ 0.2
12,LPFM,≤ 0.2
13,ASMP,≤ 0.2
14,MLTY,≤ 0.2
15,DPRC,≤ 0.2
16,ICMS,≤ 0.2
17,DTSG,≤ 0.2
18,IPVV,≤ 0.2
19,NVTL,≤ 0.2
20,RRDT,0.648
21,ELGV,≤ 0.2

row,Variant,one-hybrid fitness for binding parS DNA
1,NIHT,≤ 0.2
2,PRPW,≤ 0.2
3,QDRY,≤ 0.2
4,HVSA,≤ 0.2
5,NTQR,≤ 0.2
6,VFSK,≤ 0.2
7,LHAI,≤ 0.2
8,SGQK,≤ 0.2
9,GQTM,≤ 0.2
10,YNGS,≤ 0.2
11,IPSS,≤ 0.2
12,QTPY,≤ 0.2
13,CKPD,≤ 0.2
14,GNTA,≤ 0.2
15,PMKC,≤ 0.2
16,PKTS,≤ 0.2
17,LQPY,≤ 0.2
18,ACRM,≤ 0.2
19,MHRG,≤ 0.2
20,MYPV,≤ 0.2
21,RTYW,0.262

row,Variant,one-hybrid fitness for binding parS DNA
1,MKPG,≤ 0.2
2,AGDQ,≤ 0.2
3,SPMS,≤ 0.2
4,CIHT,≤ 0.2
5,NALC,≤ 0.2
6,QPAM,≤ 0.2
7,RVWY,0.49
8,PTED,≤ 0.2
9,PRIW,≤ 0.2
10,KAGL,≤ 0.2
11,PFTY,≤ 0.2
12,CRTD,≤ 0.2
13,VCLK,≤ 0.2
14,GSYS,≤ 0.2
15,VSRY,≤ 0.2
16,WVTG,≤ 0.2
17,SPKS,≤ 0.2
18,CKYG,≤ 0.2
19,TCDS,≤ 0.2
20,RCTN,0.475
21,GFEG,≤ 0.2

row,Variant,one-hybrid fitness for binding parS DNA
1,KQRT,≤ 0.2
2,RMSL,≤ 0.2
3,YDLR,≤ 0.2
4,YGAT,≤ 0.2
5,TNAM,≤ 0.2
6,PLAQ,≤ 0.2
7,PFHS,≤ 0.2
8,GYMF,≤ 0.2
9,QLRR,≤ 0.2
10,DDRL,≤ 0.2
11,NERL,≤ 0.2
12,VMTF,≤ 0.2
13,IYTA,≤ 0.2
14,KNKM,≤ 0.2
15,MIMG,≤ 0.2
16,GANL,≤ 0.2
17,YPDW,≤ 0.2
18,AQSE,≤ 0.2
19,TTRH,≤ 0.2
20,MHPG,≤ 0.2
21,FGGI,≤ 0.2
